# Results: PubChem BioAssay AID1347165 (National Center for Advancing Translational Sciences (NCATS), 2019)
# The campaign covered roughly 220,000 compounds. About 5,700 (2.6%) were called active. The shares of active, inactive and inconclusive entries below differ from those in the screen. Calls follow the shape of the dose curve; as a rule, active = well fitted inhibition curve with a large enough effect; inconclusive = small, poorly fitted or top-dose-only effect; inactive = no such curve, though single readings can be large or run the other way. Potencies of inconclusive entries are doubtful fits and often do not repeat.
# Target: Lysine-specific demethylase 5B (Homo sapiens) (UniProt Q9UGL1)
# Assay: Primary screen for KDM5B Histone Demethylases FDH-coupled qHTS; also: nearly all actives have a fitted effect of over 70% in size; as to activity change, negative = inhibition: 0% is about no effect
# Conditions: FDH-coupled NADH fluorescence (FDH is formaldehyde dehydrogenase); activity change, negative = inhibition: at 57.7 µM (top of the series) unless noted
# Summary of the method: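 Here, H3K4me3 peptide (12.5 µM in substrate mix) is demethylated by KDM5BΔAP, 200 nM final, after 10 min compound exposure. Formaldehyde product is coupled through FDH (0.25 U/mL in mix) to NADH fluorescence; 30-min ΔRFU feeds dose-response curves.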
# Potency is read from the fitted curve at half-maximal effect; tags tell the direction and shape of the fitted curve.
# Chain of UniProt Q9UGL1 (Q9UGL1 whole entry, looked up): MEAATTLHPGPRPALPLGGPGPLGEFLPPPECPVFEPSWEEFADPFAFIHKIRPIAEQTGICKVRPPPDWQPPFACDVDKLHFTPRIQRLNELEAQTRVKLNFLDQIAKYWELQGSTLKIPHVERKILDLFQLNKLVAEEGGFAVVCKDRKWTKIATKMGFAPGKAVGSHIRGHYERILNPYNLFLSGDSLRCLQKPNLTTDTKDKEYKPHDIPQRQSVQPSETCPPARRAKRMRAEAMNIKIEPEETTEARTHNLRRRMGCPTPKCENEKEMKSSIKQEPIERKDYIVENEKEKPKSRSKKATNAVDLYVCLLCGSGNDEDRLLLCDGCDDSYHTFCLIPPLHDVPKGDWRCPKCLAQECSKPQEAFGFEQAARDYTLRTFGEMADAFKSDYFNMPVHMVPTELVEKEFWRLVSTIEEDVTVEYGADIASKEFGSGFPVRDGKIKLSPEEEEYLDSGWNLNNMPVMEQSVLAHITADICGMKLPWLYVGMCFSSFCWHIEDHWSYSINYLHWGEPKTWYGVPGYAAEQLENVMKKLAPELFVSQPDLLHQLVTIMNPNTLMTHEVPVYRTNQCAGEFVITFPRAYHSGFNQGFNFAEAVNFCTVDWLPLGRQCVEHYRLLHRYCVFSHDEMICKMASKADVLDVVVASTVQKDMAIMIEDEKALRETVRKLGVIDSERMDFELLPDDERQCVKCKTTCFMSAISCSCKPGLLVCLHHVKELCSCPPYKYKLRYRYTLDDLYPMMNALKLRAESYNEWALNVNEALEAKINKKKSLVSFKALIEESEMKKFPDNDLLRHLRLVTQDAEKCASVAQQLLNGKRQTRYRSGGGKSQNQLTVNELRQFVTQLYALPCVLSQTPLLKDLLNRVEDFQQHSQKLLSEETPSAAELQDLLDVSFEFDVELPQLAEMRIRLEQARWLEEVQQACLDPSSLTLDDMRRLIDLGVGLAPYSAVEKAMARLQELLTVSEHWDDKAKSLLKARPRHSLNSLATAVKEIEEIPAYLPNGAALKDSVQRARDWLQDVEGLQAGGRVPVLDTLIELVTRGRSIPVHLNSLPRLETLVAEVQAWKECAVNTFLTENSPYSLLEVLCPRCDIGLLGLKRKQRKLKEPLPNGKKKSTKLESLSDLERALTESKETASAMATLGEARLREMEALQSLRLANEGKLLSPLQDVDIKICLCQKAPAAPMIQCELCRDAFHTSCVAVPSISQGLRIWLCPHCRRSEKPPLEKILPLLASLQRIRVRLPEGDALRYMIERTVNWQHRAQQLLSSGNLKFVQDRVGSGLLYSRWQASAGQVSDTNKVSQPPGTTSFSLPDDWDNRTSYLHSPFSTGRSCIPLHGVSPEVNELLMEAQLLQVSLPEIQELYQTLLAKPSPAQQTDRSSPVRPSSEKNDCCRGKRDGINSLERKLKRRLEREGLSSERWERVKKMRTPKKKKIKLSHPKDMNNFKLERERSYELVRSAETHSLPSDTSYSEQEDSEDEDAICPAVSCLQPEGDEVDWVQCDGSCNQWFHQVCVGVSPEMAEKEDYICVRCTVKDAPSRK
Compound,Potency,"activity change, negative = inhibition"
Cc1cccc(NC(=O)c2ccc(Cn3nc(N4CCN(c5ccccc5)CC4)ccc3=O)o2)c1C,"inconclusive: 25.1 µM [inhibitor, partial curve, poor fit]",
COc1cccc2c1CCN=C2C[C@H]1CN(C(=O)C2CCC2)CC[C@H]1CC(=O)O,active: 35.5 µM,
Cn1nc(C(=O)NCc2ccccc2Cl)c2c1-c1ccccc1SC2,"inconclusive: 14.1 µM [inhibitor, partial curve, poor fit]",
Cc1ccc(-c2cc3c(=O)n(CCNC(=O)c4cccc5[nH]ccc45)ccn3n2)cc1C,active: 28.2 µM,
CC(=O)Nc1c(C)nn(-c2ccccc2)c1N1CCC(C(=O)NCc2cccc(F)c2)CC1,"inconclusive: 8.91 µM [inhibitor, partial curve, poor fit]",
Cc1ccc(N(CC(=O)N2CCN(c3cccc(C)c3C)CC2)S(=O)(=O)c2c(C)nn(C)c2C)cc1,"inconclusive: 2.51 µM [inhibitor, full curve, poor fit]",
O=C(O)C1CNCCN(C(=O)c2nc3ccc(F)cc3[nH]2)C1 (centres undefined),,inactive: 34.9%
CC1=C(C(=O)Nc2ccccc2)C(c2cc(C)ccc2C)N2C(CC(=O)N3CCCC3)=CSC2=N1 (centres undefined),"inconclusive: 25.1 µM [inhibitor, partial curve]",
COc1ccc(-c2cc(=O)n(-c3cccc(C)c3)[nH]2)cc1OC,"inconclusive: 10 µM [inhibitor, partial curve, poor fit]",
CS(=O)(=O)N1CCC(C2CCN(Cc3ccc4c(c3)CCO4)C2)CC1 (centres undefined),"inconclusive: 17.8 µM [inhibitor, single point]",
CS(=O)(=O)c1cnc(NCCCc2ccccn2)nc1C1CCCNC1 (centres undefined),"inconclusive: 31.6 µM [inhibitor, partial curve, poor fit]",
CC(=O)N1CCN(c2cncc(C(=O)N3CCOCC3)n2)CC(O)C1 (centres undefined),active: 22.4 µM,
Cc1oc(-c2ccccc2)nc1C(=O)NC(C)CN1CCOCC1 (centres undefined),,inactive: 8.87%
CC(=O)NC[C@H]1CCN(Cc2ccc(C#N)cc2)C[C@H]1N(C)C,"inconclusive: 31.6 µM [inhibitor, single point]",
Cc1ccc2nc(-c3ccccc3)cc(C(=O)NCCN3CCOCC3)c2c1,"inconclusive: 35.5 µM [inhibitor, partial curve, poor fit]",
COc1cc(/C=C(\C#N)C(N)=C(C#N)C#N)cc(Cl)c1O,"inconclusive: 35.5 µM [inhibitor, single point]",
CC(C)OCCCn1c(SCc2ccccc2Cl)nc2c(sc3ccccc32)c1=O,"inconclusive: 14.1 µM [inhibitor, partial curve, poor fit]",
COc1ccccc1C(=O)N1CCCCC1c1noc(COc2ccc(C)cc2)n1 (centres undefined),,inactive: 10.8%
Cc1cccc(C2C3=C(COC3=O)Nc3c2c(=O)[nH]c(=O)n3CC(C)C)c1 (centres undefined),"inconclusive: 28.2 µM [inhibitor, partial curve, poor fit]",
CCOP(=O)(OCC)c1nc(-c2ccc(Br)cc2)oc1N1CCCCC1,"inconclusive: 22.4 µM [inhibitor, partial curve, poor fit]",
COC(=O)c1ccccc1NC(=O)N1CCN(c2ccc(=O)n(-c3ccc(C)cc3)n2)CC1,,inactive: 5.13%
O=C(N[C@@H]1COCC[C@@H]1Oc1ccc(F)cc1)c1cccn2cnnc12,"inconclusive: 15.8 µM [inhibitor, partial curve, poor fit]",

Compound,Potency,"activity change, negative = inhibition"
COc1cc(OC)cc(C(=O)Nc2cccc(-c3cn4ccsc4n3)c2)c1,"inconclusive: 28.2 µM [inhibitor, partial curve, poor fit]",
Cc1ccc(C(=O)N2CCCN(c3cc(-c4ccccc4)[nH]n3)CC2)cc1,"inconclusive: 31.6 µM [inhibitor, partial curve, poor fit]",
Cc1ccc2c(C(=O)NCc3ccc(C(F)(F)F)cc3)cc(NC(=O)C(C)C)cc2n1,active: 15.8 µM,
O=C(c1cccnc1)N(Cc1cccs1)C1CC1,,inactive: 13.3%
COc1ccccc1CC(=O)N1CCCc2ncc(C(=O)NCc3ccc(OC)c(OC)c3)cc21,,inactive: -0.694%
Clc1ccc(CNc2ncnc3onc(-c4ccc(Cl)cc4)c23)cc1,"inconclusive: 35.5 µM [inhibitor, partial curve, poor fit]",
O=C(c1ccc2cc[nH]c2c1)N1CCC2(CC1)N=C(c1ccccc1)NO2,"inconclusive: 22.4 µM [inhibitor, single point]",
Cc1ccc(C(=O)N2CCC3(CC2)N=C(c2cccc(Br)c2)NO3)cc1C,"inconclusive: 25.1 µM [inhibitor, single point]",
CCOC(=O)c1cc2c(=O)n3ccccc3nc2n(C(C)C)c1=NC(=O)c1c(-c2c(F)cccc2Cl)noc1C,"inconclusive: 17.8 µM [inhibitor, partial curve, poor fit]",
CCOc1ccc(-c2cc3nc(C4CCN(C(=O)OC(C)(C)C)CC4)c(C(=O)Nc4ccc(C)c(F)c4)cn3n2)cc1,"inconclusive: 5.01 µM [inhibitor, partial curve, poor fit]",
CN1CC(=O)N(C2CCNCC2)Cc2c(NC3CCCCC3O)ncnc21 (centres undefined),"inconclusive: 63.1 µM [inhibitor, partial curve, poor fit]",
Cn1ncc(N2CCC(CNC(=O)c3cn4cccnc4n3)C2)cc1=O (centres undefined),active: 28.2 µM,
CC(C)CC(=O)Nc1ccc2oc(-c3ccc(F)cc3Cl)nc2c1,"inconclusive: 1.78 µM [inhibitor, partial curve, poor fit]",
CNS(=O)(=O)c1cc(-c2nn3c(C)nnc3c3ccccc23)ccc1C,"inconclusive: 25.1 µM [inhibitor, single point]",
COc1ccc(Cl)cc1N(CC(=O)N1CCc2ccccc2C1)S(C)(=O)=O,,inactive: 12.2%
O=C(Cn1nc2c(cc1=O)CCCC2)N1CCCC1,,inactive: -18.1%
Cc1ccc(CNc2oc(-c3ccc(COc4ccc(Cl)cc4)o3)nc2C#N)cc1,"inconclusive: 15.8 µM [inhibitor, partial curve, poor fit]",
CC(C)CNC(=O)NC(=O)CSC1=Nc2ccccc2CS1,,inactive: 26.2%
Cc1ccccc1NC(=O)c1c(NC(=O)c2ccncc2)sc2c1CCC(C(C)(C)C)C2 (centres undefined),"inconclusive: 20 µM [inhibitor, partial curve, poor fit]",
COc1ccccc1NC(=O)C1=C(C)Nc2nc(-c3ccco3)nn2C1c1ccccc1 (centres undefined),"inconclusive: 25.1 µM [inhibitor, single point]",
O=c1c2c(n(Cc3ccccc3)n1-c1ccccc1)CN(Cc1cccnc1)CC2,active: 31.6 µM,
Cc1cc(C)cc(CCC(=O)N2CCN(c3ccc(C#N)cn3)CC2)c1,"inconclusive: 11.2 µM [inhibitor, partial curve, poor fit]",

Compound,Potency,"activity change, negative = inhibition"
COc1cccc(CNC(=O)c2ccc3c(c2)N(C)C(=O)C2CCCCN32)c1 (centres undefined),"inconclusive: 1.12 µM [inhibitor, partial curve, poor fit]",
Cc1cc(N)c([N+](=O)[O-])cc1C,,inactive: 16.1%
O=C1NC2(CCN(Cc3ccc(OC(F)(F)F)cc3)C2)COc2ccccc21 (centres undefined),active: 22.4 µM,
O=C(O)C(CO)NS(=O)(=O)c1ccc(Br)cc1 (centres undefined),,inactive: -7.64%
CCOC(=O)c1nccn1Cc1nc(-c2sccc2C)oc1C,"inconclusive: 15.8 µM [inhibitor, partial curve]",
O=C1NCCCCCN(CC2CCCCC2)[C@H]2CCC[C@@H]12,"inconclusive: 11.2 µM [inhibitor, partial curve, poor fit]",
Cc1ccc2nc(C)c3c(c2c1)SCC3,"inconclusive: 28.2 µM [inhibitor, partial curve, poor fit]",
COc1cc2c(cc1Cn1cc(-c3nccn3C)nn1)CCC2,"inconclusive: 31.6 µM [inhibitor, partial curve, poor fit]",
N#CCCN1CCN(c2cc(C(=O)O)c3cc(NC(=O)c4ccccc4)ccc3n2)CC1,,inactive: 95.6%
Cc1ncoc1C(=O)N1CCCN(Cc2ccncc2)C(c2ccccc2)CC(=O)NCC1 (centres undefined),"inconclusive: 39.8 µM [inhibitor, single point]",
COc1ccc2[nH]cc(CCNC(=O)Nc3cccc(F)c3)c2c1,"inconclusive: 15.8 µM [inhibitor, partial curve, poor fit]",
CC(=O)c1ccc(NS(=O)(=O)c2cnc(N)nc2)cc1,"inconclusive: 35.5 µM [inhibitor, single point]",
COc1ccccc1CN(C)C(=O)CCn1ccc2ccccc21,,inactive: 1.91%
CCc1ccccc1NC(=O)CSc1ncccc1C(=O)O,"inconclusive: 39.8 µM [inhibitor, single point]",
COc1cccc(CNC(=O)CCc2c(C)nc3c(c2C)c(=O)n(C)c(=O)n3C)c1,,inconclusive: -30.2% [inhibitor]
O=C1NCCCCCCN(Cc2ccncc2)[C@@H]2CN(Cc3ccncc3)CC[C@@H]12,"inconclusive: 22.4 µM [inhibitor, partial curve, poor fit]",
COc1cc(-c2ccc(NC(=O)NC3CC3)c(OC)c2)ccc1NC(=O)NC1CC1,"inconclusive: 39.8 µM [inhibitor, partial curve, poor fit]",
CN1c2cc(C(=O)N3CCN(c4cccc(Cl)c4)CC3)ccc2C(=O)N2CCCCC21 (centres undefined),"inconclusive: 22.4 µM [inhibitor, partial curve, poor fit]",
O=C(CCc1c[nH]c2ccccc12)Nc1ccc(F)c(F)c1,,inactive: -12.1%
O=C(NCc1ccc(F)cc1)C1CC(=O)N(c2n[nH]c3ccccc23)C1 (centres undefined),"inconclusive: 31.6 µM [inhibitor, single point]",
